Test results from PubChem BioAssay AID1508624 (National Center for Advancing Translational Sciences (NCATS), 2021).
In all, about 48,000 compounds went through this assay and about 120 (0.25%) were called active. Roughly 4% stayed inconclusive and do not appear here. Calls come from the whole dose curve; as a rule, active = well fitted activation curve with a large enough effect; inconclusive = small, poorly fitted or top-dose-only effect, or another doubt; inactive = no such curve, though single readings can be large or run the other way. The list shows a part of the results.

test: Primary qHTS for Identification of Small Molecule Activators of Huntingtin-Antisense Promoter Activity; settings: HEK293 HTT-AS promoter firefly luciferase reporter (activity 0% = vehicle and -100% = no light), 24 h; series mostly up to 57.5 µM; activity change, positive = activation: at the top concentration; note: nearly all actives have a fitted effect of over 55% in size
Summary of the method: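 Firefly luciferase readout (Dual-Glo, 10 min RT) after 24 h, 37 °C compound exposure (final up to 57.5 uM) of HEK293 reporter cells cultured 24 h beforehand; PTC124 at 50 uM final as control inhibitor; activity scaled vehicle 0%, zero RLU -100%.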

Activity change, positive = activation, inactive:
Cc1c(NC(=O)c2nc3ccccc3n(C)c2=O)cccc1[N+](=O)[O-] 12.7%, COc1cccc(N2CCN(C(=O)C3CCCN(S(=O)(=O)c4ccc(Br)s4)C3)CC2)c1 (stereo not drawn) -37%, Cc1ccc(NC(=O)c2ccc(NC(=O)N3CCSc4ncccc43)cc2)cc1Cl -50.8%, CCc1ccc(-n2nc3cc(C)c(NC(=O)c4cc(Cl)ccc4OC)cc3n2)cc1 -0.66%, O=C(Cn1cc(S(=O)(=O)Cc2ccc(F)cc2)c2ccccc21)NCCc1ccccc1 -35.3%, COc1ccc(NS(=O)(=O)c2cc3[nH]c(=O)c(=O)[nH]c3cc2C)cc1OC -4.98%, Cc1ccc2c(=O)cc(C(=O)Nc3sc4c(c3C(=O)NCc3ccco3)CCC4)oc2c1C 1.35%, COc1ccc(OCCn2c(C3CC(=O)N(c4ccc(F)cc4)C3)nc3ccccc32)cc1 (stereo not drawn) -38%, COc1ccc(Nc2cc(C(=O)NCCc3ccccc3)c3ccccc3n2)cc1OC -5.04%, CCCN(C(=O)Cn1ncc2c(=O)oc3ccccc3c21)c1cccc(C)c1 -12.8%, Cc1ccc(CNC(=O)Cn2ncc3c(C)n(Cc4ccc(Cl)cc4)c(C)c3c2=O)cc1 -5.4%, CCC(C)NC(=O)Cn1c(=O)n(Cc2ccc(C(=O)NCCCOC)cc2)c(=O)c2ccccc21 (stereo not drawn) -11%, Cc1ccc(NC(=O)c2c(N3CCCC3=O)c3cc(C)ccc3n2C)c(C)c1 -1.9%, CCCCC12CN3CC(C)(CN(C1)C3c1cc(Br)ccc1O)C2=O (stereo not drawn) -6.36%, CS(=O)(=O)c1ccc2nc(NC(=O)CS(=O)(=O)c3ccc(Cl)cc3)sc2c1 -11.2%, CCOC(=O)CNC(=O)Nc1cc(C(=O)NCc2cccc(F)c2)ccc1N1CCCC1 7.23%, Cc1ccc(-c2nc3scc(CCNC(=O)c4cccc(Br)c4)n3n2)cc1 -28.6%, COc1ccccc1NC(=O)C1CCCN(c2nnc(C)c3c(C)n(-c4ccccc4)nc23)C1 (stereo not drawn) -12.1%, Cc1ccc(NC2=C(c3ccc(C(F)(F)F)cc3)C(=O)c3ccccc32)cc1F -39.1%, CCOc1ccccc1NC(=O)CSc1nc2ccccc2c2nc(CCn3cncc3C)nn12 -20.2%, CCCCCC(C)N (stereo not drawn) 1.78%, O=C(NCC(c1cccnc1)N1CCc2ccccc21)c1ccccc1Br (stereo not drawn) -19.7%, CCCN(CCC)C(=O)Cn1c(=O)n(-c2cccc(C(F)(F)F)c2)c(=O)c2c(C)c(C)sc21 9.88%, O=C(Cn1c(=O)n(Cc2ccco2)c(=O)c2cccnc21)Nc1ccccc1F -6.3%, CCOc1cc(C(=O)Nc2ccc(-c3nc4cc(C)ccc4o3)cc2)cc(OCC)c1OCC -15.2%, O=C(Nc1ccc2nc(SCC(=O)N3CCCC3)sc2c1)c1ccccc1 -1.82%, O=C1[C@@H]2CSC(c3ccc(F)cc3)N2C(=O)N1c1ccc(Cl)cc1 (stereo partly drawn) -28.6%, COc1ccc(CNC(=O)c2cccc(N3CCCS3(=O)=O)c2)cc1 -14.9%, CCc1ccc(-n2c(=O)c3c4c(sc3n(Cc3ccc(F)cc3)c2=O)CCCC4)cc1 0.176%, O=C(Cn1c(=O)n2nc(-c3ccccc3)nc2c2ccccc21)Nc1ccccc1C(F)(F)F -8.96%, Nc1ncc(S(=O)(=O)NCc2cccc(Cl)c2)cn1 -11.6%, Cc1ccc2oc(=O)c3cnn(CC(=O)NCc4ccccc4Cl)c3c2c1 -8.07%, O=C(O)CCC(=O)OC[C@@H](NC(=O)C(Cl)Cl)[C@H](O)c1ccc([N+](=O)[O-])cc1 -11.6%, Cc1ccc(C)n1-c1nnc(N2CCC(C(=O)NCc3ccccc3Cl)CC2)s1 8.45%, Cc1ccc(-c2nc(CCNC(=O)C(=O)Nc3ccc(C)c(C)c3)cs2)cc1 -8.78%, COc1ccc(S(=O)(=O)N(Cc2nc(-c3ccc(C)cc3)no2)C2CCCCC2)cc1 -27.5%, COc1cc(Cl)c(C)cc1NC(=O)CCc1nc2cccnc2n1-c1ccccc1 -9.27%, CC1=C(C(=O)Nc2ccccc2)C(c2ccccc2)n2nc(-c3ccco3)nc2N1 (stereo not drawn) -5.3%, CC(=O)Nc1nnc(SCc2cc(=O)c3cc(C)ccc3[nH]2)s1 -20%, COc1ccc(NC(=O)Cn2c(SCc3cccc(Cl)c3)nc3ccncc32)c(OC)c1OC 2.26%, NC(=O)NC1N=C([O][Al])NC1=O (stereo not drawn) -1%, CCOc1ccccc1NC(=O)CCn1c(-c2ccc(OC)cc2)cc(C(C)=O)c1C -16.6%, Cc1ccc(NCc2cccn2-c2nnc(N3CCCCCC3)s2)cc1 -61.7%, CCOc1ccccc1NC(=O)C(C)Sc1cc(-c2ccccc2)nc(C)n1 (stereo not drawn) -19.7%, Cn1c(=O)cc(SCC(=O)NCc2ccc(F)cc2)c2ccc(Cl)cc21 21.5%, CCCCNC(=O)C1CCN(S(=O)(=O)c2cc(Br)cc3c2N(C(=O)CC)CC3)CC1 -2.63%, COc1ccc(-c2nnc(SCC(=O)Nc3cccc(F)c3)s2)cc1 -57.7%, CCn1cc(C(=O)O)c(=O)c2ccc(C)nc21, Nc1ncn([C@@H]2O[C@H](CO)[C@@H](O)[C@@H]2O)c(=O)n1 -28.2%, Cc1ccc(OCC(=O)Nc2c(C(=O)c3ccccc3)oc3ccccc23)cc1C 0.338%, COc1ccc(CNC(=O)Cn2c(SCC(=O)N(C)c3ccccc3)nc3ccccc32)cc1 -4.49%, CCOC(=O)c1noc2nc(C)n(CC(=O)Nc3cc(Cl)ccc3OC)c(=O)c12 -7.4%, COc1cc(C(=O)Nc2ccc3nn(-c4ccc(F)cc4)nc3c2)cc(OC)c1OC -2.33%, CCCCn1c(=O)n(-c2ccc(Br)cc2F)c(=O)c2c3c(sc21)CN(C(C)=O)CC3 -17.4%, Cc1csc2nc(COC(=O)c3ccc(NC(=O)COc4ccccc4F)cc3)cc(=O)n12 -26.8%, COc1ccccc1CNC(=O)C(=O)NCC(c1cccs1)S(=O)(=O)c1ccc(F)cc1 (stereo not drawn) -27.9%, CC1=C(C(=O)OCC2CCCCC2)C(c2ccc(F)cc2F)CC(=O)N1 (stereo not drawn) -23.3%, Oc1c(C(c2ccccc2)N2CCN(Cc3ccccc3)CC2)sc2nc(-c3ccco3)nn12 (stereo not drawn) -11.9%, Cc1ccc(CNC(=O)C2CCN(S(=O)(=O)N3CCC(C)CC3)CC2)cc1 -10.6%, Cc1ccc(C(=O)Nc2nnc(S(=O)(=O)N3CCOCC3)s2)cc1 2.5%, COC(=O)c1ccc(NC(=O)C2(S(=O)(=O)c3ccc(C)cc3)CC2)cc1 0.861%, COC(=O)c1sc(-c2ccccc2)cc1NC(=O)c1cccc(F)c1 -5.71%, O=C(NCc1ccc(F)cc1)C1CCN(C(=O)c2ccc(-n3ccc4ccccc43)s2)CC1 -23.4%, Cc1ccc(CN2CCCn3nc(C(=O)NCCC(C)C)cc3C2=O)cc1 -2.18%, CCN(CC)CCNC(=O)c1cc(S(C)(=O)=O)ccc1OC 2.59%, COc1cccc(CNC(=O)c2c(C)nn(-c3cccc(C)c3)c2-n2cccc2)c1 -20.7%, O=C(NCCCc1ccccc1)c1nn(-c2ccccc2F)nc1CO -32.7%, O=C(NCCc1ccccc1)c1ccc(CSc2nc3cccnc3n2Cc2ccc(F)cc2)cc1 -15.5%, CC(=O)c1ccc(NC(=O)C2CCC(CNS(=O)(=O)c3ccc(Br)s3)CC2)cc1 (stereo not drawn) -3.96%, O=C(NC(=O)c1cccc(F)c1)Nc1ccc(-c2cc(C(F)(F)F)nn2-c2ccccc2)cc1 -19.6%, Cc1nc(-c2ccc(C)c(N3CCN(C(=O)Nc4ccccc4C(F)(F)F)CC3)c2)no1 -21.8%, Cc1cc(C)cc(-n2cnc3cc(C(=O)NCCc4ccccc4)ccc32)c1 4.82%, CCOC(=O)c1c(Oc2ccc(C(=O)OC)cc2)nnc(-c2ccccc2)c1-c1ccccc1 0.27%, Cc1ccc(C)c(N(C)C(=O)c2cn(C)c(=O)c3ccccc23)c1 -39.8%, COc1cc(NC(=O)Cn2c(SCc3ccc(F)cc3)nc3cccnc32)cc(OC)c1 2.83%, Cc1ccc(CCNC(=O)CCc2cn(Cc3ccccc3C)c3ccccc23)cc1 -13.9%, O=C(CNC(=O)c1ccccc1Cl)OCc1cc(=O)n2ccsc2n1 9.14%, Cc1cccc(NC(=O)c2cc(S(=O)(=O)N3CCCCC3)c[nH]2)c1C -18.2%, Brc1csc(CN2CCc3nc(Nc4ccccc4)ncc3C2)c1 4.2%, Cc1cccc(Cn2c(SCc3ccc(C(=O)N4CCCCCC4)cc3)nc3ccncc32)c1 -30.2%, Cc1ccc(S(=O)(=O)N2CCC(Oc3ccc(-n4cnnn4)cc3)CC2)cc1 -7.51%, COc1ccc(CC(=O)Nc2ccc3nc(Nc4cccc(Cl)c4)cc(C)c3c2)cc1OC -40.8%, COc1ccccc1-n1cc(-c2ccc(C)cc2)nc1S(=O)(=O)CC(=O)Nc1ccccc1C(F)(F)F 4.88%, COc1ccc(CNCCSc2nnnn2-c2ccccc2)cc1 -17.4%, COc1ccc(CCNC(=O)c2ccc3c(c2)N(Cc2cccc(C)c2)C(=O)c2ccccc2S3(=O)=O)cc1OC -18.7%, COc1ccccc1NC(=O)CSc1nnc(-c2cccc(Cl)c2)o1 15.7%, CCOc1ccccc1-c1nc(-c2ccc(-c3ccccc3)nc2OCC)no1 -19.9%, CCn1cc(S(=O)(=O)c2cc(C)cc(C)c2)c(=O)c2cc(F)c(N3CCOCC3)cc21 -15.2%, O=C(CCCN1CC=C(n2c(=O)[nH]c3ccccc32)CC1)c1ccc(F)cc1 -4.93%, COc1ccccc1Nc1c2c(nc3ccc(NC(=O)/C=C/c4cccc(OC)c4OC)cc13)CCCC2 -94.8%, Cc1ccc(Nc2c3c(nc4nncn24)CCC3)cc1 -13.4%, COc1ccc2nc(N(Cc3cccnc3)C(=O)CCc3ccccc3)sc2c1 -23.8%, COc1cc(OC)c(NC(c2nnc(-c3ccccc3)o2)c2ccc(F)cc2Cl)cc1Cl (stereo not drawn) -23.4%, CCc1ccccc1NC(=O)Cn1nnc(C(=O)OC)c1C(=O)OC -12.5%, CCN(CC)S(=O)(=O)c1ccc2c(c1)N(CC(=O)Nc1c(C)cccc1C)C(=O)CO2 -11.5%, COc1ccc(OC)c(N(CC(=O)NCc2ccccc2)S(=O)(=O)c2ccccc2)c1 8.09%, COc1ccccc1CCNC(=O)c1ccc2c(c1)c(C)c(C)n2C 6.03%, CCc1ccc(NCc2cc3cc4c(cc3n(CC(=O)Nc3ccc(Cl)cc3)c2=O)OCO4)cc1 0.0594%
